Reference: PubChem BioAssay AID1240 (Sanford-Burnham Center for Chemical Genomics, 2008)
The whole screen tested about 50,000 compounds, of which about 800 (1.6%) showed an effect of 50% or more. Some of the results follow.

Target: Bcl-2-like protein 10 (Homo sapiens) (UniProt Q9HD36)
Test: TR3 peptide-Bcl-B binding displacers, biochemical primary FP assay, phenotype converters (AID 1240);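 also: 0% = Bcl-B with tracer peptide and DMSO and 100% = tracer peptide lacking Bcl-B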
Settings: GST-Bcl-B / FITC-TR3 peptide fluorescence polarization; stronger effect = higher value; compound at 3.75 mg/L

UniProt Q9HD36, sequence (Q9HD36 whole entry, looked up): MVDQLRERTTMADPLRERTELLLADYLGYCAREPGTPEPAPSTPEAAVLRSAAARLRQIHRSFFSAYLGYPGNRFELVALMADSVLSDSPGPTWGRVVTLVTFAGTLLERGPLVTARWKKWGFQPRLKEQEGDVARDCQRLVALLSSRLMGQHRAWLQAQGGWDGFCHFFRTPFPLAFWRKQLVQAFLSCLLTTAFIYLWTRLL

Row | Compound | displacement [%]
1 | Cc1ccc(C(=O)NC(C(=O)NC(C)(C)C)C23CC4CC(CC(C4)C2)C3)cc1 (stereo unspecified) | -13.8
2 | COc1ccc(CCN(C(=O)CCC(=O)O)C2CC(=O)N(c3ccc(Cl)cc3)C2=O)cc1 (stereo unspecified) | 4
3 | CCOc1ccc(C=NN2CCN(c3ccc(Cl)cc3)CC2)cc1 | -5.4
4 | O=c1cc(C(F)(F)F)oc2ccccc12 | -1.8
5 | O=C(Cc1csc(-c2ccccc2)n1)Nc1ccc(Br)cc1 | -4.7
6 | O=C(CSc1nc2sc3c(c2c(=O)[nH]1)CCCC3)N1CCN(CCO)CC1 | -1.5
7 | COc1ccccc1NC(=O)c1ccc(Cl)cc1Cl | 8
8 | Cc1cccc(C(=O)N2CCN(c3ccccn3)CC2)c1 | -4.2
9 | O=C(Nc1cc([N+](=O)[O-])ccc1Cl)c1cc(-c2ccc(Cl)cc2)nc2ccccc12 | 13.6
10 | O=C(NC(c1ccccc1)c1ccccc1)C1CC1c1ccccc1 (stereo unspecified) | 10.8
11 | Clc1ccc(-c2nnc(-c3sc4ccccc4c3Cl)o2)cc1 | 3.2
12 | COc1cc(/C=C2\SC(=S)N(C(Cc3ccccc3)C(=O)O)C2=O)ccc1O (stereo unspecified) | 9.5
13 | O=Cc1ccc(-c2cc(C(F)(F)F)cc(C(F)(F)F)c2)o1 | -10.5
14 | O=C1NN(c2ccc(Cl)c(Cl)c2)C(=O)/C1=C/c1ccc(Cl)cc1 | 2.3
15 | O=C1c2ccccc2S(=O)(=O)N1c1c(F)c(F)c(C(F)(F)F)c(F)c1F | 12.4
16 | O=[N+]([O-])c1ccc(N2CCN(S(=O)(=O)c3ccc4ccccc4c3)CC2)cc1 | 12.7
17 | CC(=O)c1cccc(NC(=O)c2cccc(C)c2)c1 | 3.3
18 | CCCC1=NN(C(=O)Cc2ccc(OC)c(OC)c2)C(O)(C(F)(F)F)C1 (stereo unspecified) | -13.9
19 | CCOc1ccccc1NS(=O)(=O)c1cc(Cl)ccc1Cl | -14.2
20 | CCC(=O)Nc1cccc(NC(=O)c2ccc(C(C)(C)C)cc2)c1 | 0.9
21 | O=C(N/N=C/c1ccc(OCc2ccccc2)cc1)c1ccc[n+](Cc2ccccc2)c1 | 11.1
22 | COc1ccc(NC(=O)C(=O)NCc2ccco2)cc1Cl | 9.2
23 | O=c1[nH]c(=O)n(Cc2ccccc2)cc1Cl | 0.6

Row | Compound | displacement [%]
24 | CC(C)CN1C(=O)/C(=C/c2cccc(Oc3ccccc3)c2)SC1=S | 12.4
25 | Cc1ccc2cccc(OC(=O)c3oc4ccccc4c3C)c2n1 | 17.6
26 | COc1ccc(NC(=O)N2CCOCC2)c(OC)c1 | 1
27 | NC(=O)NC(c1ccccc1)c1ccccc1Cl (stereo unspecified) | 5.4
28 | Cc1csc(NC(=O)c2cnccn2)n1 | -0.6
29 | Cc1ccc(C(=O)NCCNc2ccc(C(F)(F)F)cc2[N+](=O)[O-])cc1 | 10.6
30 | O=C(Cn1cnc([N+](=O)[O-])n1)Nc1ccc(F)cc1F | 16.7
31 | COC(=O)c1ccc(/C=N/NC(=O)c2cc(-c3ccc4ccccc4c3)n[nH]2)cc1 | -1.3
32 | COc1ccccc1/C=C1/SC(=S)N(CCC(=O)Nc2ccccc2)C1=O | 9.9
33 | COc1ccc(N2C(=O)C3C4C=CC(C5CC45)C3C2=O)c([N+](=O)[O-])c1 (stereo unspecified) | 12.7
34 | CCN1C(=O)/C(=C\c2cc(Cl)ccc2O)SC1=S | -4.9
35 | Cc1cccc(C(=O)O/N=C(\N)c2ccncc2)c1 | 8.5
36 | O=C(O)C1C2CCC(O2)C1C(=O)N1CCN(c2ccccc2F)CC1 (stereo unspecified) | -9.9
37 | CCOc1ccc2nc(Nc3nc(C)c(C)c(=O)[nH]3)nc(C)c2c1 | -15.1
38 | O=S(=O)(c1cc(Cl)ccc1Br)n1nnc2ccccc21 | 0
39 | CCOc1ccccc1C=Nc1ccccc1C(=O)Nc1ccccc1 | -7.9
40 | Cc1ccc([N+](=O)[O-])cc1-c1ccc(/C=C(\C#N)C(=O)NCc2ccco2)o1 | 14.8
41 | COc1ccccc1CN1CCN(Cc2ccncc2)CC1 | -22.9
42 | Cc1onc(-c2c(F)cccc2Cl)c1C(=O)NCc1cccnc1 | -2.4
43 | CC1CC(C)(C)N(C(=O)CN2C(=O)c3ccccc3C2=O)c2ccccc21 (stereo unspecified) | 1.4
44 | O=C(NC(NC(=S)N1CCOCC1)C(Cl)(Cl)Cl)c1cccc([N+](=O)[O-])c1 (stereo unspecified) | 10.3
45 | CC1=NN(c2ccccc2)C(=O)C1/C=C1\NC(=S)NC1=O (stereo unspecified) | 0.7
46 | Cc1nc2ccccc2n1C(=O)c1cc(Cl)ccc1Cl | 7.5

Row | Compound | displacement [%]
47 | Cc1ccc(S(=O)(=O)/N=C/c2ccc(Cl)cc2Cl)cc1 | -10.4
48 | COc1ccc(CN2CCN(CC3CC4C=CC3C4)CC2)c(OC)c1OC (stereo unspecified) | 4.4
49 | O=C(NC(=S)Nc1ccc(N2CCOCC2)c(Cl)c1)c1ccc(Cl)cc1 | -7.8
50 | Cc1ccc(-n2nc3ccc(NC(=S)NC(=O)c4ccc(Cl)cc4)cc3n2)cc1 | 6.4
51 | COc1ccc2nc(Nc3nc(C)cc(-c4ccccc4)n3)nc(C)c2c1 | -14.2
52 | COC(=O)c1cc(NC(=O)/C=C/c2ccc(F)cc2)cc(C(=O)OC)c1 | -11.7
53 | CC(C)N1C(=O)c2cccc3c(N4CCCCC4)ccc(c23)C1=O | 9.8
54 | CCNC(=O)N1c2ccc(OC)cc2C(C)=CC1(C)C | 14.5
55 | COc1ccc(Br)cc1C(=O)NCCNc1ccc(Cl)cc1[N+](=O)[O-] | 11
56 | O=C(CSc1cccc2cccnc12)OCC(=O)c1ccccc1 | 1.8
57 | Cc1cccc(OCC(=O)Nc2ccccc2-c2ccccc2)c1 | -25.9
58 | COc1ccc2oc(=O)c(C(=O)N3CCN(C)CC3)cc2c1 | -8.4
59 | CCc1nnc(NS(=O)(=O)c2ccc(NC(=O)c3cccc4ccccc34)cc2)s1 | 19
60 | Cc1nc(SCC(=O)Nc2nnc(-c3ccc([N+](=O)[O-])cc3)s2)n[nH]1 | -9.5
61 | COc1ccccc1C/C(N)=N/OC(=O)/C=C/c1ccccc1 | 0.9
62 | C=CCNC(=O)CN(c1ccc(OC)cc1OC)S(C)(=O)=O | -10.1
63 | Cc1ccc(OCC(=O)NCc2ccccc2Cl)c(Br)c1 | -0.3
64 | COc1ccc(N(Cc2ccc(C(=O)NCc3ccccc3)cc2)S(=O)(=O)c2ccccc2)cc1 | -11
65 | CCOc1ccc(NC(=O)CC2S/C(=N\N=C(/C)c3ccc(Cl)cc3)NC2=O)cc1 (stereo unspecified) | 8.6
66 | CCOc1ccc(C(NC(C)=O)c2ccc(OC)cc2)cc1 (stereo unspecified) | -10
67 | COc1cc(C=C2C(=O)OC(C)(C)OC2=O)cc(Cl)c1O | -6.6
68 | CCOC(=O)c1ccc(NC(=O)C(=O)NCc2ccccn2)cc1 | -20.8
69 | CC1(C)Cc2ccccc2/C(=C(\C#N)C(=O)Nc2ccccc2)N1 | -5.6

Row | Compound | displacement [%]
70 | Cc1ccc(-c2nc3cc(Cl)cc(Cl)c3o2)cc1NC(=O)COc1ccccc1 | 41
71 | Cn1cnnc1SCC(=O)N1CCCc2ccccc21 | 15.4
72 | O=C(Nc1ccccc1)Nc1nnc(Cc2ccc(Cl)c(Cl)c2)s1 | 3.4
73 | O=C1c2ccccc2-c2onc3c(N4CCN(c5ccccc5)CC4)ccc1c23 | -8.2
74 | Cc1oc2cc(Br)c(O)cc2c1C(=O)OC(C)C | 7.1
75 | COc1ccc(S(=O)(=O)N2CCN(S(C)(=O)=O)CC2)cc1 | 7.4
76 | CCOc1ccc(Cl)cc1/C=C1\C(=N)N2N=C(CC)SC2=NC1=O | 2
77 | CC(=O)c1c(C)oc2ccc(NS(=O)(=O)c3cccc([N+](=O)[O-])c3)cc12 | 7.1
78 | CCN(Cc1ccccc1)C(=O)c1cc(C(=O)OC)cc([N+](=O)[O-])c1 | 6.7
79 | CNC(=S)Nc1ccc(C23CC4CC(CC(C4)C2)C3)cc1 | -20.9
80 | CCC1=NN2C(=N)/C(=C/c3ccc(OC(C)=O)cc3)C(=O)N=C2S1 | -1.9
81 | CC(C)(CN1CCOCC1)NS(=O)(=O)c1ccc(Cl)cc1 | 7.4
82 | O=C(Nc1cccc(C(F)(F)F)c1)c1nn2c(c1Cl)NC(c1ccccc1)CC2C(F)(F)F (stereo unspecified) | 3.9
83 | CCN(CC)c1ccc(NC(=O)c2ccc(OCc3ccccc3)cc2)cc1 | 11.2
84 | Cc1cc(-n2cc(C=O)c(-c3ccccc3)n2)nc2ccccc12 | 75.4
85 | O=C(/C=C/c1ccccc1)c1ccc([N+](=O)[O-])cc1 | 14.1
86 | Cc1cc(C)cc(NC(=O)c2ccc([N+](=O)[O-])c(C)c2)c1 | -9.1
87 | CC(=O)n1cc(/C=C2\C(=O)NC(=S)N(c3cccc4ccccc34)C2=O)c2ccccc21 | -7.4
88 | Cc1cc(OCC(=O)Nc2ccc(Cl)cn2)ccc1Cl | 8
89 | CCCCOC(=O)COC(=O)COc1c(Cl)cc(Cl)cc1Cl | -2.8
90 | COc1ccc(NC(=O)c2cccc(Cl)c2)cc1 | -1.3
91 | COc1ccc(S(=O)(=O)N2CCN(C(=O)COc3ccc(Cl)cc3)CC2)cc1 | 1.9
92 | O=C(CSc1nnc(-c2ccc(Br)cc2)o1)NC1CCCCC1 | 7.5

Row | Compound | displacement [%]
93 | CN1CCN(C(=O)c2cc3nc(-c4ccc([N+](=O)[O-])cc4)cc(C(F)(F)F)n3n2)CC1 | 13.3
94 | Cc1cc(C)c2cccc(NC(=O)C3CC3)c2n1 | 14.2
95 | COCCCNC(=S)Nc1ccc(Cl)cc1Cl | -14.3
96 | O=C(Cc1c(O)c2ccccc2[nH]c1=O)N1CCOCC1 | -1.9
97 | COC(=O)c1cc(NC(=O)c2ccc(-c3cc(Cl)ccc3Cl)o2)cc(C(=O)OC)c1 | 2.4
98 | CCc1ccc(-c2nc3cc(NC(=O)c4ccc5c(c4)OCCO5)ccc3o2)cc1 | 1.6
99 | CCOC(=O)c1c(NC(=O)C2CC2c2ccccc2)sc2c1CCC(C)C2 (stereo unspecified) | -8.5
100 | C=CCC1CC=CC(CC=C)(C(O)(CC=C)CC=C)N1 (stereo unspecified) | 3.4
101 | COc1ccc(C(=O)Nc2ccc([N+](=O)[O-])cc2C)cc1 | 18.6
102 | COc1ccc(NC(=O)c2ccc(C#Cc3ccccc3)cc2)cc1 | -3
103 | CCN(CC)c1ccc(C(=O)n2cnc3ccccc32)cc1 | 14.9
104 | Cc1ccc(-c2ccc(OCC(=O)NCCc3ccccc3)cc2)cc1 | -7
105 | O=C1N=C(N2CCOCC2)S/C1=C\c1ccc2c(c1)OCO2 | -11.3
106 | COc1cccc(N2C(=O)CC(N3CCN(Cc4ccc5c(c4)OCO5)CC3)C2=O)c1 (stereo unspecified) | 10.6
107 | Cc1n[nH]c(C)c1CCCCCCOc1ccccc1Cl | -8.7
108 | Cc1cccc(NC(=O)c2ccc(OCC(C)C)cc2)c1 | 10.3
109 | O=C(Nc1nncs1)c1ccc2c(c1)OCO2 | -4.7
110 | CCOC(=O)c1c(C)n(CCc2ccc(OC)c(OC)c2)c2ccc(OC)cc12 | -8.1
111 | CCc1ccccc1NC(=O)C(=O)NCCCOC | -0.8
